Results on 99 molecules are retold here after PubChem BioAssay AID485344 (National Center for Advancing Translational Sciences (NCATS), 2010).

Structures are written as SMILES. About 6,900 (2%) of roughly 340,000 compounds were called active. Rule as the data show it: active = inhibition above about 30%; inactive = below that, where a call was filed. The entries are a selection whose mix differs from that of the whole data set. The source gives no active or inactive call for entries shown without one.

Chain of UniProt P14416 (P14416 whole entry, looked up): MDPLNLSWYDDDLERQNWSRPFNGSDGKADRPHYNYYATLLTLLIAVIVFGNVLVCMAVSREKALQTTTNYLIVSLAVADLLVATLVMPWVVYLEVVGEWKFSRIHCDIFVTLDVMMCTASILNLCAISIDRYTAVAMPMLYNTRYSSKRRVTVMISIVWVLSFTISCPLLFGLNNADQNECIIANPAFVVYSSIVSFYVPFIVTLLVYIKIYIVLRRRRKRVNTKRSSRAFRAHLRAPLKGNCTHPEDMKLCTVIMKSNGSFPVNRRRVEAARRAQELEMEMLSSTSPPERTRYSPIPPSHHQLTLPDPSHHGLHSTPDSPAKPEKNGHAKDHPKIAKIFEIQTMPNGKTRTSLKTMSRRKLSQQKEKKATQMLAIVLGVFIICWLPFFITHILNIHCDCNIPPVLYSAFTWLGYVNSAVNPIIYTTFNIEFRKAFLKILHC

This assay addresses D(2) dopamine receptor (Homo sapiens) (UniProt P14416). As to the kind of experiment: HTS Assay for Allosteric Antagonists of the Human D2 Dopamine Receptor: Primary Screen for Antagonists. Also: 0% is about no effect. Particulars: HEK293 TREx D2 cells, calcium flux, dopamine EC80; at 10 µM; stronger effect = higher value. A digest of the protocol:
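Tetracycline-induced HEK293 T-REx cells expressing D2 force-coupled to calcium signalling were dye-loaded, exposed to compound for 180 s, then challenged with an EC80 of dopamine; calcium flux was followed kinetically for a further 180 s.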
Background: Calcium flux is commonly read through the fluorescence of an indicator in the cells.
For `CNC(=O)C1CCC(Cn2c(=O)c3sccc3n(CC(=O)N3CCCC3)c2=O)CC1` (centres undefined), the inhibition – broadly, the drop in the measured response relative to a control, in per cent – is 13.2%.
With `COc1cccc(CNc2ncnc3c2nnn3C)c1`, the inhibition is -6.27%.
The figure for `COc1cccc(C2CC(=O)Nc3c2c(=O)[nH]c2ncnn32)c1OC` (centres undefined) is -2.05%; for `Cc1cccc2cc(CN(C(=O)c3cccc(Cl)c3)c3ccccc3)c(=O)[nH]c12` it is -8.67%.
Take `CCN(C(=O)CSc1nc(-c2ccccc2)no1)c1cccc(C)c1`: the inhibition is -18.8%.
The figure for `Cc1ccc2c(c1)cc(C(=O)NCc1ccc(F)cc1)n2C` is 3.18%; for `COc1ccccc1N1CCN(c2ccc(=O)n(CC(=O)O)n2)CC1` it is 18.8%.
Turning to `COc1ccccc1OCC(=O)NCCS(=O)(=O)N1CCN(c2ccccc2)CC1`, the inhibition is active: 62.1%.
For `O=c1c2sc3ccccc3c2n(Cc2ccccc2F)c(=O)n1-c1ccccc1Cl` the value was -4.35%; for `COc1cccc(CNC(=O)CSc2nc3ccccc3nc2Cc2ccccc2)c1`, 2.13%; for `Cc1ccccc1NC(=O)c1c(C)oc2ccc(O)c(CN3CCCC(C)C3)c12` (centres undefined), 6.18%.
For `COc1cc2c(cc1OC)C(c1ccc(F)cc1)N(c1ccccc1)C(=O)C2` (centres undefined) the value was -0.848%; for `CCN(CC)S(=O)(=O)c1ccc2nc(NC(=O)c3ccccc3OC)sc2c1`, 26.5%.
For `Cc1nnc(N2CCC(C(=O)NCc3ccc(F)cc3)CC2)c2nn(-c3ccc(Cl)cc3)c(C)c12` the value was 1.55%; for `COc1ccc(CN2CCN(c3ncccn3)CC2)c(C)c1C`, active: 93.4%.
On to `OCCNCCOc1ccc(Cl)c(Cl)c1`, for which the inhibition was active: 33.4%.
With `C=CCOc1ccc(Br)cc1CNCC`, the inhibition was active: 67.4%.
With `Cc1cc(Br)ccc1NC(=O)COc1cc(=O)n(C)c2ccccc12`, the inhibition is -7.03%.
For `COc1ccccc1NC(=O)c1ccc2[nH]c(C)cc(=O)c2c1` the value was 8.53%; for `CCCCOc1ccc(C(=O)NCCS(=O)(=O)N2CCN(c3ccccc3OC)CC2)cc1`, -19.6%; for `Cc1ccc2oc(-c3cc(NC(=O)Cc4ccccc4)ccc3Cl)nc2c1`, 11.9%.
`O=C(COc1ccc(Cl)cc1)Nc1ccc(O)c(-c2nc3ccccc3s2)c1`: the inhibition is 0.806%.
For `O=C(NC1CC(=O)N(c2ccc(F)cc2)C1)c1ccc(S(=O)(=O)N2CCCC2)cc1` (centres undefined) the value was 7.93%.
The figure for `CCN(C(=O)CSc1nc2ccccc2nc1Cc1cccc(OC)c1)c1cccc(C)c1` is 9.21%; for `Cc1cc(C)n2nnnc2n1` it is active: 38.3%.
Regarding `O=C(Nc1cccnc1)c1ccc(CN2CCc3ccccc3C2)cc1`, the inhibition was active: 65.8%.
In the case of `Cc1ccc(NC(=O)Nc2nc3c(s2)CCCCCC3)cc1C`, the inhibition amounted to 7.37%.
The figure for `CC(=O)Nc1c(C)nn(-c2ccccc2)c1N1CCC(C(=O)Nc2ccc(C)cc2Cl)CC1` is 0.932%; for `CCCc1nc2nc(C)c(NS(=O)(=O)c3ccc(C)c(C)c3)c(=O)n2[nH]1` it is -12.1%; for `C/C(=N\NC(=O)CN1CCCCC1)c1ccccc1O` it is active: 84.6%.
Regarding `COc1cccc(NC(=O)CSc2nnc3[nH]c(=O)cc(-c4ccccc4)n23)c1`, the inhibition is -17.7%.
Turning to `CCOC(=O)C1CCCN(C(=O)c2ccc(C)c(NC(=O)c3nsc4ccccc34)c2)C1` (centres undefined), the inhibition was -7.9%.
Consider `CC(=O)Nc1ccc(NC(=O)c2ccc3c(c2)CCN3S(=O)(=O)c2ccc(Cl)cc2)cc1`, for which the inhibition was 6.46%.
The figure for `COc1ccc(CCNc2oc(/C=C/c3ccc(OC)c(OC)c3)nc2C#N)cc1` is 14.8%.
`CC(=O)Nc1ccc(C)cc1-c1nc2ccccc2n(Cc2cccc(Br)c2)c1=O`: the inhibition was 24.2%.
The figure for `NS(=O)(=O)c1ccc(NC(=O)/C=C/c2cccc(Cl)c2)cc1` is active: 35.2%; for `COc1ccc(OC)c(-n2nnc(-c3nc(-c4ccc5c(c4)OCO5)no3)c2C)c1` it is 2.64%; for `Clc1ccc(OCCCN2CCCCC2)c(Br)c1` it is active: 38%.
Consider `O=C(NC1CC(=O)N(c2cccc(F)c2)C1)c1ccc(S(=O)(=O)N2CCCCC2)cc1` (centres undefined), for which the inhibition was 11.2%.
Take `CCN(CC)c1ccc2cc(-c3nnc(-c4ccccc4)o3)c(=O)oc2c1`: the inhibition is active: 37.9%.
For `Cc1noc(-c2ccc(N(C)Cc3ccccc3)c([N+](=O)[O-])c2)n1` the value was -4.01%; for `Cc1ccc(OCC(=O)Nc2nnc(SCc3cc(=O)n4cc(C)ccc4n3)s2)cc1`, -2.08%.
`COC(=O)c1ccccc1NC(=O)CCn1c(=O)c2cccn2c2cccnc21`: the inhibition was 4.24%.
`COc1ccc(C(=O)Nc2cc(-c3nc4ncccc4o3)ccc2C)cc1Br`: the inhibition is -7.51%.
For `O=C(c1cccs1)N(Cc1ccco1)C1CCS(=O)(=O)C1` (centres undefined) the value was active: 40.8%.
The figure for `CCC(=O)N1c2ccccc2CC1C(=O)NCCc1ccccc1OC` (centres undefined) is 5.55%; for `Cc1ccc(C)c(-c2ccc(=O)n(C(C)C(=O)Nc3ccccc3C(F)(F)F)n2)c1` (centres undefined) it is -9.32%; for `CCCCNC(=O)CSc1nc(-c2ccc(OC)cc2)cc(C(F)(F)F)n1` it is -1.72%.
For `CCc1ccc(-n2nc(C)c3c(C(=O)Nc4ccc(Cl)cc4)cc(C)nc32)cc1` the value was 6.97%; for `Cc1ccc(CN(C(=O)COc2cccc(Cl)c2)c2ccccn2)o1`, 0.944%.
Take `CCOc1ccc(NC(c2ccc(Cl)cc2)c2nnc(-c3cccc(F)c3)o2)cc1` (centres undefined): the inhibition is -5.88%.
For `COc1cc(O)ccc1-c1nc2ccc(Br)cn2c1Nc1ccccc1C` the value was 11.4%; for `O=C(Nc1ccccc1F)C(c1ccccc1)N1Cc2ccccc2C1=O` (centres undefined), 4.03%.
For `CCOc1ccccc1NC(=O)CSc1ccc([N+](=O)[O-])cc1` the value was active: 40.9%; for `O=C(CSc1nccn1Cc1ccc(F)cc1)NC1CCCC1`, 5.48%; for `COc1ccc(NC(=O)C2(S(=O)(=O)c3ccc(C)cc3)CC2)c(OC)c1`, -1.75%.
Regarding `CCCN(CCC)C(=O)Cn1c(=O)n(-c2ccc(CC)cc2)c(=O)c2c3c(sc21)CCC3`, the inhibition was 13.5%.
For `CCOC(=O)C1CCN(C(=O)c2ccc3c(=O)n4nc(Nc5ccccc5)sc4nc3c2)CC1`, the inhibition was -17.9%.
In the case of `Cc1ccn2c(Nc3ccc4c(c3)OCO4)c(-c3ccc(C)o3)nc2c1`, the inhibition was -16.2%.
The figure for `Cc1ccc(C(=O)NCCSc2c[nH]c3ccccc23)cc1C` is -17.6%; for `Cc1cccc(NC(=O)c2ccc(F)c(S(=O)(=O)NCc3ccc4c(c3)OCO4)c2)c1` it is 13.5%; for `CCOc1ccc(N(CC)C(=O)c2cc3c(s2)-c2ccc(Cl)cc2SC3)cc1` it is -10.9%.
For `OCCN1CCN(C(=S)c2ccc(Br)cc2)CC1` the value was active: 54.7%; for `Cc1cc(C)cc(NC(=O)CSc2oc(-c3cccs3)nc2S(=O)(=O)c2ccc(Br)cc2)c1`, 3.04%; for `COC(=O)c1sc2cccc(F)c2c1S(=O)(=O)NC(C)c1ccccc1` (centres undefined), 8.5%.
The figure for `CCc1ccc(NCc2cc3ccc(OC)cc3n(CC(=O)Nc3ccccc3OC)c2=O)cc1` is 8.66%.
Turning to `Cc1cccn2c(=O)c3cc(C(=O)NC(C)(C)C)n(C)c3nc12`, the inhibition is -5.32%.
The figure for `CCOC(=O)C1CCN(c2nc3c(S(=O)(=O)c4ccc(CC)cc4)nnn3c3ccc(Cl)cc23)CC1` is 13.6%.
For `CC(=O)c1ccc(NC(=O)C2CCCN(S(=O)(=O)c3ccc(Br)s3)C2)cc1` (centres undefined), the inhibition came out at 6.21%.
For `CCOc1ccc(NC(=O)c2sc3nc4n(c(=O)c3c2C)CCCC4)cc1` the value was -9.87%.
For `CCOC(=O)c1ccc(NC(=O)C2CCN(S(=O)(=O)Cc3ccccc3)CC2)cc1` the value was -12.4%.
For `Cc1cc(Cl)ccc1NC(=O)CS(=O)(=O)c1cccc2nsnc12` the value was 17.6%; for `Cc1ccc2c(c1)-c1c(cnn1CC(=O)N1CCN(c3cc(Cl)ccc3C)CC1)CO2`, 1.03%; for `CC(C)C(NS(=O)(=O)c1cccc2cccnc12)C(=O)Nc1ccc(OC(F)(F)F)cc1` (centres undefined), 3.53%.
In the case of `O=C(c1ccccc1)c1ccc2nc(Nc3cc(Cl)ccc3O)c3nncn3c2c1`, the inhibition came to 6.83%.
The figure for `COc1ccc(F)cc1C(=O)C1CCCN(Cc2cnc(N3CCCC3)s2)C1` (centres undefined) is active: 66%; for `CC1CN(CC(=O)c2c(N)n(Cc3ccccc3)c(=O)n(C)c2=O)CC(C)O1` (centres undefined) it is active: 35.8%; for `CCN1CCC(N(Cc2ccc(F)cc2)C(=O)Nc2cc(Cl)ccc2C(=O)OC)CC1` it is -8.73%.
On to `CC(=O)c1ccc(N2CCN(C(=O)c3ccc(Cn4c(=O)[nH]c5ccccc5c4=O)cc3)CC2)cc1`, for which the inhibition is -7.72%.
The figure for `CC(C)c1ccc(NC(=O)C2(C)Cc3ccccc3C(=O)O2)cc1` (centres undefined) is -2.37%; for `CCCOc1ccc(C2c3c(oc4ccccc4c3=O)C(=O)N2c2nc(C)c(C(=O)OCC)s2)cc1` (centres undefined) it is 3.54%; for `COc1ccc(S(=O)(=O)NCc2ccc(C(=O)NCc3ccccc3)cc2)cc1` it is -2.45%.
For `Cc1cc(C)c(NC(=O)CCC(=O)N2Cc3ccccc3Oc3ncccc32)c(C)c1` the value was 5.99%; for `COC(=O)c1ccccc1NC(=O)Cn1c(=O)n(CCCC(=O)NCCc2ccc(OC)c(OC)c2)c(=O)c2ccccc21`, 14.3%.
For `COc1ccc(Nc2cc(C)c3cc(NC(=O)c4cc(OC)cc(OC)c4)ccc3n2)cc1` the value was -15.6%; for `CCOC(=O)C1CCN(CCC(=O)Nc2ccc(OC)cc2)CC1`, -2.37%; for `Cc1ccc(NC(=O)c2ccc(CSc3nccc(C)n3)cc2)cc1`, active: 31.1%.
For `CCCN1C(=O)C2(c3ccccc31)c1c(oc3ccc(C)cc3c1=O)C(=O)N2CCOC` (centres undefined), the inhibition came to 2.62%.
The figure for `Cc1ccccc1OCCN1CCC(Cc2ccccc2)CC1` is active: 46.3%; for `Cc1nc(N2CCOCC2)c2c(C(=O)N3CCN(c4cccc(C)c4C)CC3)c(C)oc2n1` it is 17.3%.
The figure for `COc1cc(C(=O)N2CC(=O)Nc3ccc(C)cc3C2c2ccc(F)cc2)cc(OC)c1OC` (centres undefined) is -3.17%.
For `CCc1ccc(NC(=O)c2cc3c([nH]c2=O)CC(C)(C)CC3=O)cc1`, the inhibition is -3.11%.
`CC(=O)c1cccc(NC(=O)c2cc3nc(-c4ccc(Br)cc4)cc(C(F)(F)F)n3n2)c1`: the inhibition was 10.5%.
For `COc1ccc(NC(=O)CN2CCN(c3ccccc3)CC2)cc1` the value was active: 50%; for `COc1ccc(CNC(=O)c2ccc(-c3nc(CSc4ccccc4)c(C)o3)cc2)c(OC)c1`, 5.62%.
For `N#Cc1c[nH]n2c(NC3CCCCC3)c(-c3cccc(Cl)c3)nc12` the value was 13.8%; for `CCOc1ccc2oc(=O)cc(CN3CCN(c4ccccc4)CC3)c2c1`, -2.07%.
The figure for `Cc1ccc(-c2nc(C)c(CCNC(=O)C(=O)Nc3ccc4c(c3)OCO4)s2)cc1` is -14.5%; for `COc1ccc(CCN2C(=O)N(c3ccccc3)C(=O)C2CC(=O)Nc2ccccc2)cc1` (centres undefined) it is -5.54%.
